# Data from the supplement of paper PMC3334620.
# The full ranking holds about 33,000 sequences; the median of “E-score (-0.5 to 0.5)” is about -0.012, and the highest 2% start at about 0.29. The list shows a part of the results.
# Target: T1, Ybr033w (UniProt P38073)
# T1 sequence: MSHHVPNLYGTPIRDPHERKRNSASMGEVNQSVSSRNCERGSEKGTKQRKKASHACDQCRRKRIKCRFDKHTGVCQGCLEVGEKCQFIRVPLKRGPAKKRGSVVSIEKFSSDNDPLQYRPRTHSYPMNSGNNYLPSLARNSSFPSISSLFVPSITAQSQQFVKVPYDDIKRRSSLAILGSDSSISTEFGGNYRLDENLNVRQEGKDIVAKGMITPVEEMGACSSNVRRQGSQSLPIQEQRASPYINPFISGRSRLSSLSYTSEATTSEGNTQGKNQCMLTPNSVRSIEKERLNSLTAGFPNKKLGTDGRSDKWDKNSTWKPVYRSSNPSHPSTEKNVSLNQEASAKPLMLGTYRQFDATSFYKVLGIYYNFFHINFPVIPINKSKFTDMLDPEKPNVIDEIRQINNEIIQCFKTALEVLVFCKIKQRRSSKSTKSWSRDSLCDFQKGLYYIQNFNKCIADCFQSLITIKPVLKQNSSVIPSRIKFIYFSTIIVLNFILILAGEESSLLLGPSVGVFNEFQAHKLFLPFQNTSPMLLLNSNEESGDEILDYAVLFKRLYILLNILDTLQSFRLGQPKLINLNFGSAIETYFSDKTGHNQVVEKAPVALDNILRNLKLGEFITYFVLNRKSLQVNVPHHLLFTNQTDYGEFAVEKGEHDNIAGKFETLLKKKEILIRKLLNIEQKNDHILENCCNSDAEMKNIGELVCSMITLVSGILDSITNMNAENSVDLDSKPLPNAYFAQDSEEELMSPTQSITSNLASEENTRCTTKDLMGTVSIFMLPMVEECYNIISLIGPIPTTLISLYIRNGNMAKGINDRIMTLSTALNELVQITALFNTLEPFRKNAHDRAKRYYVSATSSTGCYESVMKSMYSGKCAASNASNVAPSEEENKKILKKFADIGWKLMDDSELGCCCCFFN
# Test: PBM E-score (8-mer binding enrichment) (E-score (-0.5 to 0.5)); higher = stronger / more preferred TF binding; most listed sequences are background and not binding sites
# Conditions: protein concentration: 200 nM; construct: GST-full length
# Procedure, shortened: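 The E-score, a modified Wilcoxon-Mann-Whitney statistic, was computed by the Universal PBM Analysis Suite for every ungapped eight-base word pooled with its reverse complement. Scans behind it were normalised with masliner after bound GST-tagged yeast transcription factors were detected with fluorescent anti-GST. The proteins, at about 100-200 nM, had been applied to universal all-10-mer Agilent arrays made double-stranded by primer extension.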
row,Sequence,PBM E-score
1,AGTGCAAT,0.0955
2,ATCTATGA,0.141
3,AGGCCCCG,-0.349
4,ATCTAGAG,0.0989
5,CGATTTGC,0.0115
6,CCTAGACA,-0.266
7,ATACCTGA,0.203
8,CTCATAAA,0.201
9,AAGTACTG,0.112
10,GTGCCCGA,-0.142
11,ACACGCCG,0.0416
12,AAACACAA,0.21
13,ACATCCCG,0.0445
14,CTTGCGTA,0.139
15,AGACGCGA,0.091
16,AGAGTGAG,-0.0219
17,CACCGACA,-0.12
18,AAAAGTAG,0.204
19,AACGGGTA,0.0675
20,CGGAGGAC,-0.272
21,ACTTGTCA,0.00488
22,AGCAAGAC,0.035
23,CACACCTC,-0.14
24,CCAATAGC,-0.0726
25,CTGGACAG,-0.0335

row,Sequence,PBM E-score
1,ACGTTCCC,-0.163
2,ATTAATTG,0.268
3,CGTCCAAA,0.169
4,AACTTGTG,0.235
5,AGAATCTA,0.187
6,ATGGGAAG,-0.0785
7,AAACGATA,0.213
8,ATTTTAGG,0.097
9,ATAGCGTA,0.0854
10,CTTGCAAG,-0.0818
11,CTGACGAC,-0.076
12,TACCCTGA,-0.0837
13,ATATGTTA,0.178
14,ACAGCATC,0.0726
15,AATGAGGA,-0.0481
16,CATGGTAG,-0.139
17,AAAGACGT,0.0945
18,GATACAAA,0.277
19,CAGCGGGG,-0.308
20,GTTTCCTA,0.206
21,ACAGCAAC,0.208
22,ATCCTAAG,0.102
23,AAAACGGA,0.0397
24,CATTGTAC,0.0182
25,CGTATCAC,-0.0656

row,Sequence,PBM E-score
1,CTTACCCA,0.0469
2,TTCCAGAA,0.294
3,AGGATCAG,-0.166
4,GAGATACA,0.204
5,CTGCAATA,-0.0465
6,ACTTCAGC,-0.0746
7,GATAGGAA,0.0851
8,GGATTACC,0.0245
9,TGTGACAA,-0.00621
10,AAGCGTGG,-0.158
11,AGAACGCT,-0.105
12,GACCTACA,-0.146
13,AAGAAATT,0.281
14,GACACGGA,0.0693
15,CCAATACG,0.0384
16,GAGGGTCA,-0.297
17,GTACATGA,0.121
18,CAACGAGG,-0.106
19,CATAAGCC,-0.0149
20,CACCACGC,-0.279
21,TCTAGTCA,0.0917
22,CTGGCATA,-0.0172
23,GCTCTTAC,-0.0622
24,CCGCGGTA,-0.00086
25,CAACGAGA,0.0454

row,Sequence,PBM E-score
1,TGCTCAAA,0.127
2,AACATGCT,0.0601
3,GTAACGAA,0.0618
4,ACCGATTG,0.0647
5,TAGACAGA,0.157
6,CGGGGCCC,-0.256
7,AATTGTCA,0.139
8,CAATATTG,0.199
9,AGATTCAA,0.16
10,CCCATACG,-0.162
11,CGTATGCA,0.123
12,AGAGAGGC,-0.369
13,AAAAGAGT,0.0554
14,GAAAGCTC,-0.124
15,CAGCCAGA,-0.0493
16,AGAGTTAC,-0.21
17,CATTATAA,0.0193
18,GCCTAGTA,0.0454
19,GATGGAAC,0.0161
20,AATGTTTG,-0.0952
21,ACAGTTGG,-0.131
22,AAGCATAG,-0.158
23,GGGGTCGA,-0.173
24,ATTATCGA,0.0687
25,CATCATAC,0.161

row,Sequence,PBM E-score
1,GACTGAGC,-0.0991
2,ACGAAGCA,0.0493
3,ATATCGAG,0.03
4,AATGCTCT,-0.0668
5,CCCTCCTA,-0.267
6,GCAAATAC,0.13
7,CGTCCGGC,-0.211
8,CCGGTTCA,-0.113
9,AAACCGGT,-0.243
10,GAGGTCAA,-0.113
11,GCGGTCCA,-0.341
12,AGCGTAGG,-0.0658
13,ATCCAACC,0.168
14,GAAGAGGC,-0.111
15,GCTGAGAC,-0.0798
16,GATGCAAA,-0.0233
17,GCTAATGA,0.0451
18,AGGCCTAT,-0.0232
19,CGAGCTAA,-0.00818
20,AACATCCT,0.13
21,GCTGGAGA,-0.123
22,GATGCCGA,-0.175
23,GGCGTGAC,-0.141
24,GTATAACA,0.182
25,ACACTTGC,0.117

row,Sequence,PBM E-score
1,GCCGGGTA,-0.33
2,AGACGGCT,-0.18
3,AAATGGTA,0.215
4,CTTGATCC,0.0221
5,AAAATGCC,0.109
6,CCTTAGAA,-0.0193
7,GTTCACAA,0.18
8,GCTCGCCC,-0.174
9,AAATCTGC,0.211
10,ATTGACAC,-0.0449
11,ACTGATAC,-0.00572
12,CGGAAGGA,-0.0847
13,ATGGTTCA,0.144
14,GATAACTA,0.216
15,CTAGCATA,0.137
16,AAGGAGTC,-0.0677
17,CTGAGCGC,-0.161
18,AACCCGTA,-0.088
19,ACACAGCC,-0.156
20,CGACACAA,-0.092
21,GCTGCGAA,0.0677
22,AGATCACT,0.173
23,GGTTCTTA,-0.0888
24,TACGTCTA,-0.0992
25,GGCCGGGA,-0.179

row,Sequence,PBM E-score
1,CAGATAGC,-0.137
2,AAGTACTT,-0.106
3,AATCACAT,0.153
4,AGGTCGTC,-0.066
5,GACTCTCA,0.0773
6,ACACACAT,0.117
7,GCCTCGGA,-0.106
8,CAGTTGAG,-0.308
9,ATACTCAG,0.121
10,AGAGACCT,-0.0595
11,CCATGATA,-0.0118
12,GTGCACCA,-0.0761
13,ACATAAGC,0.0339
14,CATCTAGA,0.15
15,ACTTTTAG,0.0501
16,TGTTAACA,0.0681
17,GATTCGGA,0.16
18,ACGTGTCG,-0.0267
19,TCCCTCAA,-0.273
20,GCTAGGAC,-0.114
21,CCTACCCA,-0.146
22,GGATATAA,0.193
23,CATTGGCC,-0.213
24,ATGGTCGC,-0.222
25,CACGCCGA,-0.243

row,Sequence,PBM E-score
1,CTCTCTAC,-0.169
2,ATGGGTGA,-0.079
3,CCGACACG,-0.213
4,GTTCCACA,-0.0498
5,CGGTCGCA,-0.157
6,GGGCACCA,-0.303
7,CCGCTGCG,-0.084
8,ACTGGTTC,-0.152
9,ACTATTAT,0.188
10,GGAGCCAC,-0.185
11,ATCGAGCA,0.00566
12,ATGGTCTC,-0.0831
13,CAAATGGG,-0.033
14,CCAACCAG,-0.159
15,ATACGTAA,0.186
16,CGCAGGCA,-0.0605
17,CGTCACGA,-0.0133
18,CTCTCCCC,-0.322
19,AGGCACTC,-0.0654
20,GCTTTTCA,0.00885
21,CGGCTACA,-0.18
22,AATAGATA,0.247
23,AATGTTGT,0.159
24,CTCGCGAG,0.113
25,GTCACGTA,-0.0068

row,Sequence,PBM E-score
1,CGGTCCCA,-0.224
2,CCGGCGAA,-0.0463
3,AGTAAGTA,0.23
4,ACCCTGTC,-0.173
5,AATCCGGG,0.0731
6,GGCATGAA,0.0824
7,AGAACGCC,-0.0275
8,AATGTAAT,0.272
9,CCGCGTCC,0.0429
10,AATGCAAA,0.274
11,GATTAACC,0.195
12,GGACGTCA,-0.176
13,GGCATCTA,-0.00914
14,ACAAACTA,0.137
15,ATTCTTAG,-0.00421
16,ACACCCTG,-0.229
17,CCCCCGTC,-0.353
18,AATTCTCG,0.103
19,GATCTGGA,0.053
